Read counts are not given, so values of variants with three or more changes are uncertain.
B1: LINE1-mini (parent)
chain: GGCAGAGCUCAACACAGCGUGGCAAAGUGGCUGUGGCUAGACUGCC

Variants of: B1
Assay: self-cleavage, relative activity (ratio to wild type); higher = more cleavage; in vitro, sequencing; the parent is a self-cleaving ribozyme
Variant GGCACAGCUCAAUACAGCGUGGCAAAGUUGCUGUGGCUAGACUGCC [G5C C13U G29U] has a self-cleavage of 0.06. In the case of GGCACAGCUCAACACAGUGUGGCAAAGUGUCUGUGGCUAGACUGCC [G5C C18U G30U], the self-cleavage is reported as 0.02. GGCACAGCUAACCAAGGCGUGGCAAAGUGGCUGUGCCUAGACGGCC [G5C C10A A12C C15A A16G G36C U43G] gave a self-cleavage of 0. With GGCACAGCUCAACACAGGUUGGCAAAGUGGCUGUGGCUAGACUGCC [G5C C18G G19U] the self-cleavage was 0.06. GGCACAGCUCAACAUAGCGUGGCAAAGUGGCGGUGGCUAGACUGCC [G5C C15U U32G] showed a self-cleavage of 0.03. With GGCACAGCUAAACACAGCGUGGCAAAGUGGCUGUGGCUACACUGCC [G5C C10A G40C] the self-cleavage was 0.05. GGCACAGCUCAACAGAGCGUGGCAAAGUGGCCGUGGCUAGACUGUC [G5C C15G U32C C45U] gave a self-cleavage of 0.01. Variant GGCACAGCUCAACACAGAGUGGCAAACAGGCUGUGCCUAGACUGCC [G5C C18A G27C U28A G36C] has a self-cleavage of 0.05. Work on GGCACAGCUCAACACAGCGUGGUACAGUGGAUGUGGCAAGACUGCC [G5C C23U A25C C31A U38A] yielded a self-cleavage of 0.03. Work on GGCACAGCUCAACAUAGCGUGGCAAAGUGGCUGUGGCUAACCUGCC [G5C C15U G40A A41C] yielded a self-cleavage of 0.08. In the case of GGCACAGCUCAACACAGUGUGGCAAAGUGGCUAUGGCUAGACUGAC [G5C C18U G33A C45A], the self-cleavage is reported as 0.01. Variant GGCACAGCUCAACACAGAGUUGCAAAGUGGCUGUGGCUAGACUGCC [G5C C18A G21U] has a self-cleavage of 0.06. In the case of GGCACAGCUGAACACAGCGUGGCAAAAUGGCUGUGGCUAGAAUGCG [G5C C10G G27A C42A C46G], the self-cleavage is reported as 0.01. Work on GGCACAGCUCAACACAGCGUGGCAAAGUGGCUGUGGGGAGACUGCC [G5C C37G U38G] yielded a self-cleavage of 0.02. With GGCACAGUUCAACACAGCGUGAAAAAGUGGCUGUGGCUAGACUGCC [G5C C8U G22A C23A] the self-cleavage was 0.06. For GGCACAGCUCAACACAGCGUGGAAAAGAGGCUGUGGCUAGACUGCC [G5C C23A U28A], the self-cleavage was 0.34. For GGCACAGCUCAACACAGGAGGGCAAAGUCGCUGUGGCUAGACUGCC [G5C C18G G19A U20G G29C], the self-cleavage was 0.02. With GGCACAGCUAAACCCAGCGUGGCAAAGUGGCUGUGGCUCGACUGCC [G5C C10A A14C A39C] the self-cleavage was 0.01. Variant GGCACAGCUCAAGACAGCGUGGCAAAGUGGCUGUGGCUCGACUGCC [G5C C13G A39C] has a self-cleavage of 0.05. Variant GGCACAGCUAAACACAGCGUCGCAAAGUGGUUGUGGCUAUACUGCC [G5C C10A G21C C31U G40U] has a self-cleavage of 0.02. Work on GGCACAGCUCAACAUAGCGUAGCAAAGUGGCUGUGGCUAGACUGCC [G5C C15U G21A] yielded a self-cleavage of 0.06. Variant GGCACAGCUCAAAACAGCGUGGCAAAGUGUCUGUGGCUAGACUGCC [G5C C13A G30U] has a self-cleavage of 0.03. Work on GGCACAGCUCAAAACAGCGUGGCAAAGUGCCUGUGGCUAGACUGCC [G5C C13A G30C] yielded a self-cleavage of 0.02. With GGCACAGCUCAACACAGGGUGGCAGAGUGGCUGUGGAUAGACUGCC [G5C C18G A25G C37A] the self-cleavage was 0.07. Variant GGCACAGCUCAACACAGCGUGGCAAAGUGGCUGUGGGUAUUCUGCC [G5C C37G G40U A41U] has a self-cleavage of 0.08. With GGCACAGUUCAACACAGCGAGUCAAAGUAACUGUGGCUAGCAUGCC [G5C C8U U20A G22U G29A G30A A41C C42A] the self-cleavage was 0.07. Work on GGCACAGCUUAACACAGAGUGGCAAAGUGGCUGUAGCUAGACUGCC [G5C C10U C18A G35A] yielded a self-cleavage of 0.04. With GGCACAGCUCAACACAGCGUGGCAAAGUGGCUGUGGGUAUACUGCC [G5C C37G G40U] the self-cleavage was 0.03. GGCACAGUUCAACACAGCGUGGCAAAGUGGCUUUGGCUAGGCUGCC [G5C C8U G33U A41G] showed a self-cleavage of 0.16. GGCACAGCUCAAUACAGCGUGGCUAAGAGGCUGUGGCUUGACUGCC [G5C C13U A24U U28A A39U] gave a self-cleavage of 0.02. In the case of GGCACAGCUUAACGCGGCGUGGCAAACUGGCUGUUGCUAGACUGCC [G5C C10U A14G A16G G27C G35U], the self-cleavage is reported as 0.02. Work on GGCACAGUUCCACACAGCGUGGUAAAGUGGCUGUGGAUAGACUGCC [G5C C8U A11C C23U C37A] yielded a self-cleavage of 0.01. Variant GGCACAGCUCAACAAAGCGUGGAAAAGUGGCUGUGGCUCGACUGCC [G5C C15A C23A A39C] has a self-cleavage of 0.01. With GGCACAGCUCAACAUAGCCUGGCAAAGUGGCUGUGCCUAGACUGCC [G5C C15U G19C G36C] the self-cleavage was 0.08. With GGCACAGCUCAACACAGCGUGGAACAAUGACUGUGGCUAGACUGCC [G5C C23A A25C G27A G30A] the self-cleavage was 0.02. For GGCACAGCUCAACAUAGCGUCGCAAAGUCGCUGUGGCUAUACUGCC [G5C C15U G21C G29C G40U], the self-cleavage was 0.07. In the case of GGCACAGCUCAACACAGCGUGGUAAAGUGGCUGUGUCUAGCCUGCC [G5C C23U G36U A41C], the self-cleavage is reported as 0.03. GGCACAGCUAAACACCGCGUGGCAAAGUGGCUGUGGCUAGACUGCC [G5C C10A A16C] gave a self-cleavage of 0.02. Variant GGCACAGCUCAACACAGCGUGGUAAAGUCGCUGUGGCUAUACUGCC [G5C C23U G29C G40U] has a self-cleavage of 0.03. In the case of GGCACAGCUUAACACAGAGUAGCAAAGUGGCUGUGGCUAGACUGCC [G5C C10U C18A G21A], the self-cleavage is reported as 0.03. Work on GGCACAGCUCAACAUAGCGUAGCAACGUAGCUUUGGCUAGACUGCC [G5C C15U G21A A26C G29A G33U] yielded a self-cleavage of 0.07. In the case of GGCACAGUUCAACACAGCGUUGCAAAGUGGCUAUGGAUAGACUGCC [G5C C8U G21U G33A C37A], the self-cleavage is reported as 0.02. Variant GGCACAGCUGUACACAGCGUGGCAAAGUGGUUGUGGCUAGACUGCC [G5C C10G A11U C31U] has a self-cleavage of 0.01. GGCACAGCUUCACACAGCGUGGCGAAGUGGCUGUUGCUAGACUGCC [G5C C10U A11C A24G G35U] gave a self-cleavage of 0.02. Work on GGCACAGCUGAACACAGCGUGGCAGAGUGGCUGUGGCUAGACUGAC [G5C C10G A25G C45A] yielded a self-cleavage of 0.02. Variant GGCACAGCUUAACACGGCGUGGCAAAGUGGCUGUGGCUAGACUACC [G5C C10U A16G G44A] has a self-cleavage of 0. In the case of GGCACAGCUCAAAACAGCGUGGCAAAGUCGCUGUGGCUAGACUGCC [G5C C13A G29C], the self-cleavage is reported as 0.31. GGCACAGCUCAACACAGCGUGGUAAAGUGGCUGUGGCUGGACUGCC [G5C C23U A39G] showed a self-cleavage of 0.04. With GGCACAGCUCAACACAGCGUGGCAAAGUGGGUGCGGCUAGACUGCC [G5C C31G U34C] the self-cleavage was 0.03. Work on GGCACAGCUGAACACAGCGCGGCAAAGUGGCUGUGGCAAGAGUGUC [G5C C10G U20C U38A C42G C45U] yielded a self-cleavage of 0.02. For GGCACAGCUAAACGCAGCGUGGCAAAGUGGCUGUGGCUAGACCGCC [G5C C10A A14G U43C], the self-cleavage was 0.03. Work on GGCACAGCUCAACACAGCGUGGAAUAGUGGAUGUGGCUAGACUGCC [G5C C23A A25U C31A] yielded a self-cleavage of 0.05. GGCACAGCUCAACACAGCGUGGUGAAGUGCCUGUGGCUAGACUGCC [G5C C23U A24G G30C] gave a self-cleavage of 0.04. GGCACAGCUCAAUACCGCGUGGCAAAGUGGCUGUGGCUAGACUGCC [G5C C13U A16C] gave a self-cleavage of 0.04. GGCACAGCUAAACACAGCGUUGCAAAGUGGCUGUGUCUAGACUGCC [G5C C10A G21U G36U] showed a self-cleavage of 0.06. With GGCACAGCUAAACACAGCGUGGCACAGUGGCUGUGGCUAGACCGCC [G5C C10A A25C U43C] the self-cleavage was 0.03.
